Results on 77 compounds are retold here after PubChem BioAssay (NCI).

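Compound exposure: 48 hours, 5 concentrations, 96-well plates. GI50: concentration for 50% inhibition of growth. At the TGI there is no net growth.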 Bounds are passed on as bounds.

The subject of the assay is NCI-H322M lung. Briefly: NCI tumour cell line growth inhibition, 48 h.
As for `CC(=O)NC1C(OCc2ccccc2)OC(CO)C(O)C1OCC(=O)NC(C(=O)NC(CCC(=O)NCCCCCC(=O)Nc1ccc2c(c1)CN1C(=O)c3ccccc3C1=N2)C(N)=O)C(C)C` (stereo not drawn), the TGI is 39.4 µM.

Regarding `Cc1cc(-c2nc3cc(F)ccc3s2)ccc1N`, the TGI is above 100 µM.

With `Cc1nc2ccc(-n3ncc(C(=O)c4cc5ccccc5[nH]4)c3N)cc2[nH]1`, the GI50 was 30.9 µM and the TGI is above 100 µM.

With `CC(C)N(CC(=O)O)CC(=O)O`, the TGI was above 100 µM.

For `CCN1C(=O)/C(=c2\sc3n(c2=O)C2C(NN=3)N(CC)C(=O)N2CC)c2ccccc21` (stereo not drawn), the GI50 was 4.73 µM and the TGI is above 100 µM.

As to `CCOC(=O)/C=C(/C(=O)OCC)n1ccc(=O)n(Cc2cn(CCCCOC(C)=O)nn2)c1=O`, the TGI is above 100 µM.

Take `CC[C@]12C=CCN3CC[C@@]4(c5ccc(OC)cc5N(C)[C@H]4[C@@](O)(C(=O)OC)[C@@H]1OC(=O)CCC(=O)O[C@H]1CC[C@H]4[C@@H]5CCC6=CC(=O)CC[C@@H]6[C@H]5CC[C@]14C)[C@@H]32`: the GI50 is 2.74 µM and the TGI was above 50 µM.

Compound `Nc1ccc(-c2nc3ccccc3s2)cc1CO` displayed a TGI above 100 µM.

For the compound `CC/C(Cl)=N\OC(=O)Nc1ccc(F)c(Cl)c1`, the TGI worked out at 31.6 µM.

In turn, `O=C(O)C1=C(CO)Oc2cc3c(cc2C1c1ccc2c(c1)OCO2)OCO3` (stereo not drawn) registered a TGI above 100 µM.

As for `CSC1=CC(=O)c2ccccc2C1=O`, the GI50 is 17.4 µM and the TGI is 38.1 µM.

In turn, `Cc1nc(C)c(N2CCN(Cc3ccccc3)CC2)c(=O)[nH]1` gave a TGI above 100 µM.

`CC1=CC2(C)C=C[C@@H]1C(=O)[C@@]1(C)CC[C@@](O)(C(C)C)[C@H]1CC2` returned a TGI of 43.8 µM.

As for `[O-]c1c2c(nn1-c1ccc(F)cc1)c1ccccc1c[n+]2Cc1ccccc1`, the TGI is above 100 µM.

Regarding `CNC(=O)/C=C/C1=CN2C(=O)c3ccc(C)c(O)c3NC(OC)C2C1` (stereo not drawn), the TGI was found to be 0.307 µM.

`O=c1ccn(C/C=C/c2ccccc2)c(=S)n1C/C=C/c1ccccc1` registered a TGI above 100 µM.

Take `CCCCCCCCCCCCCCCC(=O)NS(=O)(=O)OC[C@H]1O[C@@H](n2cnc3c(N)ncnc32)[C@H](O)[C@@H]1O`: the GI50 was below 0.0244 µM.

For `CCC1=CC(OCc2ccccc2)C(CCN(Cc2ccccc2)C(=O)OCc2ccccc2)C1` (stereo not drawn), the TGI stood at 47.4 µM.

In turn, `Cc1[nH]c(=O)n2c(C)nnc2c1C(=O)O` returned a TGI above 100 µM.

Turning to `CC(C)[C@@]12C[C@@H](OC(=O)COC(=O)c3ccccc3)[C@@](C)(O1)[C@@H]1CC[C@@H](C)[C@H]1[C@@H]2OC(=O)/C=C/c1ccccc1`, the GI50 is above 100 µM and the TGI is above 100 µM.

`CCCCCCCCCN=C(N)c1ccc(N2CCN(c3ccc(C(N)=NCCCCCCCCC)cc3)CC2)cc1`: the GI50 is 2.74 µM and the TGI was 8.75 µM.

For `CCc1ccc(Oc2c(-c3ccc(OCCc4cccc(C(F)(F)F)c4)cc3O)n[nH]c2C(F)(F)F)cc1`, the GI50 was 6.06 µM and the TGI is 12.3 µM.

The compound `Nc1nc(N)c2cc(S(=O)(=O)c3ccc4ccccc4c3)ccc2n1` showed a TGI above 100 µM.

Compound `CN(C)CC1(Cc2ccccc2)CC/C(=C\c2ccccc2)C1=O` (stereo not drawn) showed a TGI above 100 µM.

Turning to `CCOC(=O)c1c(C)n([O-])c2cc(F)c(F)cc2[n+]1=O`, the GI50 was 2.03 µM and the TGI was determined as 4.19 µM.

For `CC[O-].CC[O-].O=C1C=C([O-])C(=O)c2ccccc21.O=C1C=C([O-])C(=O)c2ccccc21.[Ti+4]`, the GI50 is 16.1 µM and the TGI is above 66.2 µM.

As to `Cc1ccc(C(=O)NC2C(=O)NC(C(C)C)C(=O)N3CCCC3C(=O)N(C)CC(=O)N(C)C(C(C)C)C(=O)OC2C)c2c1Oc1c(c(C(=O)NC3C(=O)NC(C(C)C)C(=O)N4CCCC4C(=O)N(C)CC(=O)N(C)C(C(C)C)C(=O)OC3C)c3nc(-c4ccccc4)c(=O)oc3c1C)N2` (stereo not drawn), the TGI turned out to be 0.0495 µM.

The compound `CCOC(=O)c1c2ccccc2n2c(=O)n(-c3ccc(OC)cc3)nnc12` displayed a TGI above 100 µM.

`CCOC(=O)c1sc2nc(SC)nc3c2c1NC(=O)CN3c1ccc(F)cc1`: the TGI was above 100 µM.

As for `CO/N=C(/C)COc1ccc2c(c1)oc(=O)c1cc(OC)ccc12`, the GI50 was above 100 µM and the TGI was above 100 µM.

`CCCCCCCCCCCCCCCCCCN(C)CC(COC)OP(=O)([O-])OCC[N+](C)(C)C` (stereo not drawn) displayed a TGI of 19.5 µM.

In turn, `O=C1c2cc3c(cc2[C@@H]2C(O)[C@H]4O[C@H]4C4CCN1C42)OCO3` (stereo partly drawn) gave a TGI above 37.5 µM.

Take `Nc1ccc(Oc2ccc(C34CC5C6CC7(c8ccc(Oc9ccc(N)cc9)cc8)CC5C(C3)C(C7)C6C4)cc2)cc1`: the TGI is above 100 µM.

On to `CC(C)C[C@H](NC(=O)[C@@H](Cc1ccccc1)n1ccc(Nc2ccccc2)cc1=O)B(O)O`, for which the GI50 is 14.5 µM and the TGI was above 100 µM.

`CC(=Nc1ccc(Cl)cc1)c1ccncc1` came in with a TGI above 100 µM.

`O=C1CC(n2ccnc2)c2c(Cl)sc(Cl)c21` (stereo not drawn) had a TGI of 39.9 µM.

`COc1ccc2c(c1)OCC1c3cc(OC)c4ccccc4c3OC21` (stereo not drawn): the GI50 was 79.3 µM and the TGI was above 100 µM.

Turning to `C/C=C\C1OC1(C)c1cc(=O)c2c(C)cc3c(c2o1)C(=O)c1c(O)c(C2CC(C)(N(C)C)C(OC(C)=O)C(C)O2)cc(C2CC(N(C)C)C(O)C(C)O2)c1C3=O` (stereo not drawn), the TGI is 0.0912 µM.

With `CCCCC(CC)C(=O)Oc1ccc(C(=O)c2ccccc2)c(O)c1` (stereo not drawn), the TGI was above 100 µM.

`COc1ccc2nc3cccc([N+](=O)[O-])c3c(NCCC(=O)O)c2c1` showed a TGI above 10 µM.

Consider `O=C(/C=C(/C=C/c1cccc2[nH]ccc12)OB(F)F)/C=C/c1cccc2[nH]ccc12`, for which the GI50 was 1.93 µM and the TGI stood at 4.89 µM.

On to `COc1ccc(COCC[C@H](C)OC2OC(CO[Si](C)(C)C(C)(C)C)C(O)C(O)C2O)cc1` (stereo partly drawn), for which the TGI is above 100 µM.

`CC1(C)CC(=O)c2c(-c3ccc(Cl)cc3)c(C#N)c(=S)n(C3OC(CO)C(O)C(O)C3O)c2C1` (stereo not drawn) had a TGI above 100 µM.

`C[n+]1cccc(NC(=O)c2ccc3ccc4ccc(C(=O)Nc5ccc[n+](C)c5)nc4c3n2)c1`: the GI50 was 2.15 µM and the TGI was above 47.4 µM.

In the case of `N#CCCC(C#N)(C#N)CCC#N`, the TGI is above 100 µM.

The compound `CC(C)(C)N1CC1CNC(=O)C(=O)NCC1CN1C(C)(C)C` (stereo not drawn) displayed a TGI above 14.2 µM.

Take `COc1ccc2nc3c4c(nccc4c2c1)-c1ncccc1C3=O`: the TGI came to 0.473 µM.

Turning to `COc1ccc2[nH]c(C(=O)OCc3ccc4c(Br)cc(Br)c(O)c4n3)cc2c1`, the GI50 was 1.56 µM and the TGI was 3.05 µM.

`C[C@@]12CC[C@@H](O)C[C@@H]1CC[C@H]1[C@H]2CC[C@@]2(C)[C@H](c3ccc(=O)oc3)CC[C@@]12O`: the GI50 is below 0.01 µM and the TGI worked out at 0.0649 µM.

With `COc1ccc(-c2cc(=O)c3c(OC)c4ccoc4c(/C=C/C=O)c3o2)cc1`, the GI50 is 5.06 µM and the TGI is 64.4 µM.

`CN1CCS(=O)(=O)NC(Cc2ccccc2)C(=O)N2CCCC2C1=O` (stereo not drawn) showed a TGI above 100 µM.

For `CC(=O)[O-].CC(=O)[O-].O=C([CH-]C(=O)c1ccccc1)c1ccccc1.[Nd+3].[OH3+]`, the GI50 was 16.4 µM and the TGI was found to be 70.2 µM.

In turn, `O=c1[nH]c(=O)n([C@H]2C[C@@H](CO)[C@@H](O)C2)cc1I` displayed a TGI above 100 µM.

Regarding `NC(N)=N/N=C/c1c(-c2ccc(Cl)c([N+](=O)[O-])c2)nc2sccn12`, the TGI is 2.95 µM.

`CCOC(=O)C#Cc1cccc(C#CC(=O)OCC)c1` returned a TGI above 35.1 µM.

For the compound `COC(=O)[C@]12CC[C@H]3CN(S(=O)(=O)c4ccc(C)cc4)[C@H]([C@H]31)[C@H](c1ccco1)N2S(=O)(=O)c1ccc(C)cc1`, the TGI was above 100 µM.

As for `COC(=O)c1cc(/C=C/C(=O)Cc2ccccc2)cn1S(=O)(=O)c1ccccc1`, the TGI was above 100 µM.

`COc1ccc(C2=C(c3ccccc3)C(=O)N3CCCC3C2)cc1` (stereo not drawn): the GI50 was 3.29 µM and the TGI was above 100 µM.

Take `CCCCCOC(=O)Nc1nc(=O)n(C2OC(C)C(O)C2O)cc1F` (stereo not drawn): the GI50 was above 10000 µM and the TGI was above 10000 µM.

`CCOC(=O)C(C(=O)OCC)c1cc(-c2cc3ccccc3o2)oc(=O)c1C#N` had a TGI above 100 µM.

Take `CN1CCCS/C1=C1/SC(=S)N(c2ccccc2)C1=O`: the TGI was above 100 µM.

Take `O=c1[nH][nH]c(=O)n1Cc1ccccc1`: the TGI is above 100 µM.

As to `Cc1ccc(NC(=S)NNC(=S)Nc2ccc(C)cc2)cc1`, the GI50 was 82.2 µM and the TGI was above 100 µM.

Take `Cc1ccc2ncnc(N(C)C3CCCCC3)c2c1`: the GI50 was 41.3 µM and the TGI was above 100 µM.

In the case of `NC(=O)c1c[nH]c2ncnc(N)c12`, the GI50 was 43.9 µM and the TGI is above 100 µM.

With `Cn1c2c(c3ccccc31)CCN1C[C@@H]3CCCC[C@H]3C[C@@H]21`, the GI50 is 3.43 µM and the TGI was above 100 µM.

`O=C1C(Cl)C(c2ccc(O)cc2)N1n1cnc2ccccc2c1=O` (stereo not drawn) had a TGI above 100 µM.

Take `C=C(C(=O)c1ccccc1)C(NC(C)(C)C)c1ccccc1` (stereo not drawn): the GI50 was 5.22 µM and the TGI came out at 18.5 µM.

Consider `CCOC(=O)c1c(-c2ccccc2)n2c(=O)cc(C)c3c(O)c(O)cc1c32`, for which the GI50 was 3.75 µM and the TGI was above 100 µM.

As for `O=C(c1ccccc1)n1cc(/C=C/[N+](=O)[O-])c2ccccc21`, the TGI was above 100 µM.

In turn, `CC(C)(C)OC(=O)N(O)CCCn1cnc2c(NC3CC3)ncnc21` registered a TGI above 100 µM.

Compound `CC(C)CC(N)C(=O)NC(CNC(CCC(N)=O)C(=O)NC(CC(C)C)C(=O)NC(CC(C)C)C(=O)O)Cc1ccc2ccccc2c1` (stereo not drawn) returned a TGI above 10 µM.

For `CC1CC(C)(O)C2C3(C)CCCC2(COC3=O)C12CCC1(CCOC1=O)O2` (stereo not drawn), the TGI is above 250 µM.

Consider `N#Cc1c(C#N)c(SSc2c(C#N)c(C#N)c(N)n2-c2cccc3ccccc23)n(-c2cccc3ccccc23)c1N`, for which the TGI is above 55.4 µM.

With `Cc1ccccc1N(CCC#N)C1=NN(C(=O)CC(=O)Nc2ccc(Cl)cc2)C(c2ccccc2)C1` (stereo not drawn), the TGI was above 100 µM.

The compound `O=C1CSC(c2ccccc2)N1c1ccc(-c2ccc(-n3c(-c4ccccc4)nc4ccccc4c3=O)cc2)cc1` (stereo not drawn) had a TGI above 100 µM.

In turn, `O=C(c1ccccc1)c1ccc(N2C(=O)/C(=C/c3ccccc3S)N=C2c2ccccc2)c(N2C(=O)/C(=C/c3ccccc3S)N=C2c2ccccc2)c1` registered a TGI above 100 µM.
